The whole screen tested about 94,000 compounds, of which about 4,000 (4.3%) were called active. This list was built around the results that the source calls inconclusive (neither active nor inactive); the mix of calls is not that of the screen. The call rests on the fitted dose curve; in most records, active means well fitted inhibition curve with a large enough effect; inconclusive means small, poorly fitted or top-dose-only effect; inactive means no such curve, though single readings can be large or run the other way. Potencies beside an inconclusive call are fits to weak or partial responses and may not hold up.
Assay: Cytotoxic Profiling in NIH 3T3 Cell Line of Diverse Libraries Using Quantitative High-Throughput Screening; further: nearly all actives have a fitted effect of over 55% in size
Details: NIH 3T3 viability, CellTiter-Glo ATP luminescence, 48-72 h; series mostly up to 96.7 µM
How it was run: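 ATP-dependent luminescence (CellTiter-Glo) served as the viability signal for NIH 3T3 cells treated with compound for 48 or 72 hr at 37 °C.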
In the case of `COC(=O)[C@@H]1C[C@H](NC(=O)CCCc2cccs2)CN1C`, the Potency was “inactive”.
In the case of `O=C1COCC2(CN(c3ccc(C(F)(F)F)cn3)C2)CN1c1ccccc1F`, the Potency was “inactive”.
With `O=C(NCc1ccccc1)c1ccccc1OC1CN(Cc2ccncc2)C1` the Potency was inconclusive: 50.1 µM [inhibitor, partial curve, poor fit].
In the case of `CCOc1ccc(NC(=O)c2nnn3cc(C)[nH]c(=O)c23)cc1`, the Potency was “inactive”.
For `CC(C)c1noc(-c2cn(C3CCN(C(=O)c4cccc5[nH]ccc45)CC3)nn2)n1`, the Potency was “inactive”.
With `COc1ccc(CC(=O)N[C@@H]2COCC[C@H]2OCc2ccccn2)cc1` the Potency was “inactive”.
With `CCOc1cccc(CNC(=O)c2c(OCC3CC3)cc(=O)n3c2CCCCC3)c1` the Potency was inconclusive: 50.1 µM [inhibitor, partial curve, poor fit].
With `COc1cccc(C(=O)NC2CCN(c3ccc4nnc(C)n4n3)CC2)c1` the Potency was “inactive”.
With `O=C(c1cccc(Cl)c1)N1CCCN(c2ccc3nnc(-c4ccccc4)n3n2)CC1` the Potency was inconclusive: 56.2 µM [inhibitor, partial curve, poor fit].
With `COc1ccc2[nH]c3c(c2c1)CCNC31CCN(C(=O)COc2ccc(F)cc2)CC1` the Potency was inconclusive: 44.7 µM [inhibitor, partial curve, poor fit].
In the case of `CC(c1ccc(-c2cc(N)ccn2)cc1)N1CCCCC1` (stereo unspecified), the Potency was “inactive”.
With `COc1ccc(CCN2CCC(CN(C)C(=O)NCc3ccccc3)CC2)cc1` the Potency was “inactive”.
In the case of `Cc1cnc(C(=O)NC2C[C@H]3CC[C@@H](C2)N3C(=O)c2ccc(OC(F)(F)F)cc2)cn1` (stereo partly specified), the Potency was “inactive”.
For `C[C@@H](NC(=O)C1CCCCC1)c1c(-c2ccc(Cl)cc2)noc1C(=O)O`, the Potency was inconclusive: 100 µM [inhibitor, single point].
With `COc1ccc(OCC2CN(Cc3cccc(F)c3)C(=O)c3ccc(C)nc3O2)cc1` (stereo unspecified) the Potency was inconclusive: 44.7 µM [inhibitor, partial curve, poor fit].
In the case of `O=C(c1cnc(Cc2c(Cl)cccc2Cl)[nH]c1=O)N1CCOCC1`, the Potency was “inactive”.
In the case of `N#Cc1ccc(OCC2CN(Cc3cccc(C(F)(F)F)c3)C(=O)c3c(ccnc3-c3ccc(OCC(=O)O)cc3)O2)cc1` (stereo unspecified), the Potency was inconclusive: 31.6 µM [inhibitor, full curve, poor fit].
For `Cc1ccc(-c2nc(C(=O)N3CCN(c4cccc(C)c4)CC3)no2)cc1`, the Potency was inconclusive: 50.1 µM [inhibitor, partial curve, poor fit].
In the case of `O=C(C1CCCC1)N1CCC2(CC1)CC(N(Cc1ccccc1)C1CC1)CCO2` (stereo unspecified), the Potency was inconclusive: 50.1 µM [inhibitor, partial curve, poor fit].
In the case of `O=C(NCCc1ccccc1)c1ccc2c(c1)OCCN(CCC(F)(F)F)C2`, the Potency was “inactive”.
With `Cc1nn(-c2ccccc2)c2c1C(C)N(C1CCN(C(=O)c3ccccc3F)CC1)C2=O` (stereo unspecified) the Potency was inconclusive: 50.1 µM [inhibitor, partial curve, poor fit].
With `O=c1c2c(n(CCOc3ccccc3)n1-c1ccccc1)CN(Cc1ccc(F)cc1)CC2` the Potency was inconclusive: 50.1 µM [inhibitor, partial curve, poor fit].
With `N#CC1(c2ccc(-c3cccc(CN4CCOCC4)c3)cc2)CCCC1` the Potency was inconclusive: 56.2 µM [inhibitor, partial curve, poor fit].
In the case of `Cc1ccc(-c2noc([C@@H]3Cc4nc[nH]c4CN3C(=O)Nc3cccc(F)c3)n2)cc1`, the Potency was inconclusive: 100 µM [inhibitor, partial curve, poor fit].
For `Cc1ccc(C2NC(=O)N(CC(=O)NC(C)CCc3ccccc3)C3=C2C(=O)OC3)cc1` (stereo unspecified), the Potency was “inactive”.
For `COc1ccc(-c2nc(C(=O)NC3CC3)n3ccccc23)cc1`, the Potency was inconclusive: 79.4 µM [inhibitor, partial curve].
With `CCCS(=O)(=O)N1CC(Oc2ccc(-c3noc(-c4cccnc4)n3)cc2)C1` the Potency was inconclusive: 10 µM [inhibitor, full curve, poor fit].
For `Cc1noc2c(NC3CCC(O)CC3)cc(-c3cccs3)nc12` (stereo unspecified), the Potency was active: 28.2 µM.
With `CCn1cc(-c2ccc(C)cc2)cc1C(=O)NCc1cccnc1` the Potency was inconclusive: 28.2 µM [inhibitor, full curve].
In the case of `COc1ccccc1C(=O)N1CCC(C(=O)N2CCC(c3ccccc3)CC2)CC1`, the Potency was inconclusive: 50.1 µM [inhibitor, partial curve, poor fit].
With `Cn1nccc1CN1CCC2(CC1)CC(=O)c1ccccc1O2` the Potency was inconclusive: 44.7 µM [inhibitor, partial curve, poor fit].
In the case of `O=C(NCCn1ccn2nc(-c3ccc(F)cc3)cc2c1=O)c1c(F)cccc1Cl`, the Potency was inconclusive: 44.7 µM [inhibitor, partial curve, poor fit].
For `O=C1CC(c2noc(-c3ccccc3F)n2)CN1C1CCCCC1` (stereo unspecified), the Potency was inconclusive: 44.7 µM [inhibitor, partial curve, poor fit].
With `Oc1ccccc1CN1CCC(n2cc(-c3ccc(F)cc3)nn2)CC1` the Potency was “inactive”.
In the case of `CNC(=O)c1cc(C)nc2onc(C3CCCN(C(=O)Cc4ccc(F)cc4)C3)c12` (stereo unspecified), the Potency was inconclusive: 28.2 µM [inhibitor, partial curve].
For `C[C@]1(CO)C2CC[C@@H](O)[C@@H](CC(=O)NCc3ccccc3)[C@]2(C)CC[C@H]1OC(=O)Nc1ccccc1` (stereo partly specified), the Potency was inconclusive: 50.1 µM [inhibitor, single point].
For `COc1ccc(NC(=O)c2c(OC)cc(=O)n3c2CCCC3)cc1`, the Potency was inconclusive: 70.8 µM [inhibitor, single point].
For `COC[C@@H]1CN(C(=O)c2ccc(C#N)cc2)C[C@H]1c1nc(C2CC2)no1`, the Potency was “inactive”.
In the case of `CCN(CC)C(=O)[C@@H](C)C1CC[C@@]2(C)CC[C@H](NC(=O)c3ccncc3)[C@@H](C)[C@@H]2[C@H]1O` (stereo partly specified), the Potency was inconclusive: 89.1 µM [inhibitor, partial curve, poor fit].
With `CNC(=O)c1cc(-c2ccccc2F)nc2c1cnn2C` the Potency was inconclusive: 79.4 µM [inhibitor, partial curve].
With `O=C(NCCc1ccccc1F)c1ccc2nnc(Cc3ccc(Cl)cc3)n2c1` the Potency was inconclusive: 44.7 µM [inhibitor, partial curve, poor fit].

Reference: PubChem BioAssay AID1345082 (National Center for Advancing Translational Sciences (NCATS), 2018)
Potency means the concentration at half of the fitted maximal effect; tags describe the fitted curve by direction and shape.
